The values that follow come from article PMC10726135.

The list shows a part of the results. At the low end of the ranking the order means little. Measured with an extract: partners may take part in the binding.

For this experiment, the target named is T1, HNF4alpha2 (COS-7 nuclear extract) (UniProt P41235).
T1 sequence: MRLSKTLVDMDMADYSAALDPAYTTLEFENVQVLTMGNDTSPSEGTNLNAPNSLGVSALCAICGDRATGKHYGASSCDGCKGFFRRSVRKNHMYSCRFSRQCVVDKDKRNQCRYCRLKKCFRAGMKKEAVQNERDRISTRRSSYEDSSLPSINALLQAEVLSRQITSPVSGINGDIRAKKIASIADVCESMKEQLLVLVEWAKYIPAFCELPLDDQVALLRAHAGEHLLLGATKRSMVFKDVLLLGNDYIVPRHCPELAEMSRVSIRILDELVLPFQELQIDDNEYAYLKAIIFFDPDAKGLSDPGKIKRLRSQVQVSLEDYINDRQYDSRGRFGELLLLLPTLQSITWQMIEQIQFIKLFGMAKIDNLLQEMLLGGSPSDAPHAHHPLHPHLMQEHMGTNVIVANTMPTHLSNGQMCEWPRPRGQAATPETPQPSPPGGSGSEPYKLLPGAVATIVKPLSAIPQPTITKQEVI
Put plainly: protein-binding microarray. The note with it: COS-7 nuclear extract on double-stranded Agilent 4x180k PBM; binding buffer, salt, pH and temperature not given; high values mean tight binding; double strand, one strand shown; sequences stand for … in …GCCTAGGGAGATTAGAGTATCGGTCGA
Regarding GAACTAATTTGTCTTTTCTCCCCCGATAAG, the binding signal (log2 normalized intensity) stood at 4.51.
Then GAGGCTTTGAGTCATTGAGGCTTTGCCTTA, with 0.1.
On to TCTTTACACCATTGCAAGGATTCCAAATTT, for which the binding signal (log2 normalized intensity) is -0.162.
Then CAACCAAGGTTGCAGAGTGTCCCACTTCAG, with -1.03.
Then CTAGGATTCTTGCATGATCGATCACACAGA, with 0.145.
Regarding GCCCCAGTCCCCCGGACCAGGCCGGGTCAC, the binding signal (log2 normalized intensity) was 4.11.
Then ATCTCTTTGCAATGTAAACATCAAGGAAGA, with 0.275; and CCCCGCCCGCAGCCCAGTCTTGGCCCCACC, with 6.22.
CCTAAATCTAAGCTGGACTTTGAACTTCAT: the binding signal (log2 normalized intensity) stood at 8.99.
Then TTCTTATCTCACACAGTACTTTGTACATGG, with 1.75.
For AAATAGATAAGTCCCTAAGAGGAATAGTCA, the binding signal (log2 normalized intensity) is -1.08.
As to GAGGGAGCCAGGTTATGCAGAGCTTAGTTT, the binding signal (log2 normalized intensity) was -1.19.
Then CCTTTTATTCAAACAGAGGACAGTTGTGTT, with 1.98; and CACTGATAAAACTGGAATAAAGCAGTCCCT, with -1.15; and CTTCCAGTCCACAGTCCAGTGACTATCTGC, with 0.852.
Next, TATGGAGAGGAAAGATGGGGATATAATCAT: -1.01.
Take TAAGTAAACTGTTCAAGACTTTCAGCCAAC: the binding signal (log2 normalized intensity) is -1.11.
Next, GTCCAGAGTAGGCTTGCAAGACTGCATTCC: -1.21; AGCAAGACTGCAAAATAGACAAACAGCAAT: -1.19; CTTTGTTTGGAAAAGATTAAGTTATCCATG: 1.51.
Next, GGAAGGGCTGGAGACGCAGGAGATGAAAAA: -0.886; GACATAGTTTTTGCCCTTAAGCAGCATGTA: 1.16; ATGGTTTGACCCTGCGATAAGTAGATACCA: 0.964.
On to TGTCTTCTGACCTTTGGCAATATCTCCCAG, for which the binding signal (log2 normalized intensity) came out at 3.48.
Then GCCATTTCTGAGCAAATATTTGGGGTATGT, with 1.51; and CCTGAAGCCTTCCTTAATCCTTCAGTATGC, with 0.828; and CTTAAATAATGCATACGCTAGCTTTCTGGT, with -0.269.
Then CTCATGAGGGGCCTGTCAGGCCCAGAAACA, with -0.671.
Then ACCTCCTGGGCCCAAGTGCTCCTCCCCATC, with 3.37; and ATAAGGGTGGCCATCCATCCTGGCGACAGC, with -1.19; and AAGCTGATAAGCCAAGAATGTACTCTCCCC, with 2.52.
For the sequence TTCAAAGGACAGACTTTGGACCTGGCCCTC, the binding signal (log2 normalized intensity) was 5.66.
Then TCTGGGAAATGTAGTTCCGGAGAACACGGA, with 0.42.
Then GGTCCATAAAACCAGTCAGGCAAACAACAG, with -1.25; and TTTTAATGTGTGCTTTCAGGTGTGAACCCA, with 3.13.
On to CATGTTGAGTGGAATATGAGGTCAGGGTTC, for which the binding signal (log2 normalized intensity) came to 2.71.
Next, TCCACATCAGAGAGTTCAAACTCTGAAGTT: 1.02; CTTTCCTAATGGTACCATCTGCCACTCATA: -0.978.
Next, GGTACAGAAACAGCTGGATTGTTACATCAT: 0.0638; AGCCAAGCTCCCCTTTTAAACTGAAGCATG: -1.16; TTTAACTTGGCAAGGGGAGGCACTCATGGT: -1.02.
Then AGGGACTAAGCTTGTAGACCAAGGAGGCCT, with -1.05; and ATGTTAGTCTTGAGTCCCAAAGTCCAAAGG, with 5.42.
Consider GGGTCAAAGTCTGGATCCGTTAACAGCGGC, for which the binding signal (log2 normalized intensity) came out at 2.43.
For TCATATTTGTTATATTTGTTATACCAGACA, the binding signal (log2 normalized intensity) amounted to 1.9.
Then ACATCTCCGAGTCCAGGGATAACAGTCCTG, with -0.842; and AAACAATGACCTCTGCACCCTTCCCTGAGT, with 3.51.
Consider GGATTTTTTGGGTAAAGTCCAGGCAGGACA, for which the binding signal (log2 normalized intensity) was determined as 2.17.
Next, ACACCGTATCATCAAACCTGTTATTTGCGC: 1.25; TTCTTTTTGAAGCAAAGCCTTTGAGCAGAT: 0.819; CCTCTTTTAAGAAGCCAGTGTCTATTTACA: 0.876.
Next, TTTTTTTTTTTTTTTTTTTTGAGATGGAAT: 2.61; CCTTGGCCTCCCGGAGAGGCCCCGCCCCGT: 4.84; CAGAGTAGCCTATCAGAAGAATCTGTATCA: -1.07.
Then CTTCTCCTCCCCTCCCCCCAGTTCCCTGGG, with 4.75; and CTGAGCACTGTCTCAGGGTCCACATTCCAG, with 2.6; and CGCTCCTCTCTGTATTCCCTCTCTTCAGAA, with 0.543.
Regarding GAGGACTGAGCCCGCTCCACTCCGGGCGAT, the binding signal (log2 normalized intensity) is -1.07.
Next, GAGGTCATGTACATGAAAGCAAGTTAAAAC: 1.09.
CCTGGAGCAAACTTACTCTGGGGGAACCTC: the binding signal (log2 normalized intensity) is -0.871.
Next, TTTGATCTGGGTGGGGGTGGAGGCAGCAGC: -1.01; TCAACACTGAAATAGCATACCTTTATTAAG: 0.439.
Then ATTAGGACCTGTTTGTCTTGCTGGGGAGAT, with 1.19; and GTTGAGTGAATGGATGGATCCGCAGCCAGG, with -1.05; and AGAGCATCAGCAATGAACAAAGGTCGGTGG, with 3.41.
CAATCTCGAGATCATTTACATGTGTAACAA: the binding signal (log2 normalized intensity) came out at 0.984.
Then GAGGTGAGAAGCCTGAAATGAGTTTCATTA, with 0.613.
With AATGGATCTAAGGACAAAGTCCAAGGAAGG, the binding signal (log2 normalized intensity) is 4.48.
Then GAGGGCTCAAGGTCTGCATGCCATTTTGCA, with -1.14; and GTTATCTATGGAACATGGACTTTGAACCTC, with 10.3; and GGCCAAGGCAGATATACCAGATAAGGCAGT, with -1.11.
Then ACGTGGAAGAAACTCATCTCCAGATAAGAC, with -0.885.
In the case of AAACCCTGAGGGTCAACACAATCTGATAGT, the binding signal (log2 normalized intensity) was -0.851.
